Source: article PMC11911400, “Mechanism of ASF1 engagement by CDAN1” (Nature Communications, 2025)
Results are given in words; binding and its absence hold for the method and conditions named. In cells and extracts the contact can be indirect. Some entries that bind do so weakly or less than the wild type.

How the values were obtained:
[1] = biological target: T1, Strep-CDAN1 HMHA1* (R541A/R544A/R548A) (human) (UniProt Q8IWY9); experiment: pull-down; Strep-Tactin pulldown of transiently transfected ST-CDAN1 variants from Flp-In 293 T-REx lysates; endogenous ASF1A, ASF1B and CDIN1 detected by immunoblotting; IP buffer with 1% Triton X-100, 1 hr at 4 °C
T1 sequence: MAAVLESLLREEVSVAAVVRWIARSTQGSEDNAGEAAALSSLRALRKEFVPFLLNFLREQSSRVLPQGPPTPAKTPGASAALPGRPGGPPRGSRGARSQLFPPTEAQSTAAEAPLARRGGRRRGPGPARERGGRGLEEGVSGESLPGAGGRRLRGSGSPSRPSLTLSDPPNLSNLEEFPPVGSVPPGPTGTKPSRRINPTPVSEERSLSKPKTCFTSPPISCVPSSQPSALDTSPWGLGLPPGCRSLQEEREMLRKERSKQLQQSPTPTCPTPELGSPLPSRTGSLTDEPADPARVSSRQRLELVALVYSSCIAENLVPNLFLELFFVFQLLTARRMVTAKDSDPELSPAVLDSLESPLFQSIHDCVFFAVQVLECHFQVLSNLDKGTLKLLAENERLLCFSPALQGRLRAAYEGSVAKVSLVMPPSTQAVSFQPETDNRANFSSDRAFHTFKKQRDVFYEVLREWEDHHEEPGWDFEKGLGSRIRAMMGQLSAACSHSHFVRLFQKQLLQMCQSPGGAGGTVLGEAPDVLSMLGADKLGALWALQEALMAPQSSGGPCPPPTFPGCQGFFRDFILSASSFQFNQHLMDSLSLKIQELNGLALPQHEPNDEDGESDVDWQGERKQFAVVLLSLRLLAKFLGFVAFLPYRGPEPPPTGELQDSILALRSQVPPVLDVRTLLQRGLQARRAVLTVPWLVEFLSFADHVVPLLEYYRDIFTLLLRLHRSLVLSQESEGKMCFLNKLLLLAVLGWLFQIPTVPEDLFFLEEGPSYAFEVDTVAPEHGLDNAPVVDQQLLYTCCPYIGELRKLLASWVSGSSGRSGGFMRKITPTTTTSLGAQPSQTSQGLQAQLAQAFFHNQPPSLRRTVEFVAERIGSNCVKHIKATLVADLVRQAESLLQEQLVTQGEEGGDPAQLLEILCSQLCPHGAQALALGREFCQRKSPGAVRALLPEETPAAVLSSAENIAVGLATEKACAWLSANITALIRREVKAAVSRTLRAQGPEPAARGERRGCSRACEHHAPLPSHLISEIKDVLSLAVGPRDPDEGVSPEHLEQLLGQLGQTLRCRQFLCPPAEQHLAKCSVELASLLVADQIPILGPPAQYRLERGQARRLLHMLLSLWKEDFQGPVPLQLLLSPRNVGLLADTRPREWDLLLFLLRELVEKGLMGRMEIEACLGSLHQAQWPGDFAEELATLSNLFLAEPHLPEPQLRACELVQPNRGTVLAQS

[2] = biological target: T2, Strep-CDAN1 HMHA1* HMHA2* BDA2* (three elements mutated) (human) (UniProt Q8IWY9); experiment: as above
T2 sequence: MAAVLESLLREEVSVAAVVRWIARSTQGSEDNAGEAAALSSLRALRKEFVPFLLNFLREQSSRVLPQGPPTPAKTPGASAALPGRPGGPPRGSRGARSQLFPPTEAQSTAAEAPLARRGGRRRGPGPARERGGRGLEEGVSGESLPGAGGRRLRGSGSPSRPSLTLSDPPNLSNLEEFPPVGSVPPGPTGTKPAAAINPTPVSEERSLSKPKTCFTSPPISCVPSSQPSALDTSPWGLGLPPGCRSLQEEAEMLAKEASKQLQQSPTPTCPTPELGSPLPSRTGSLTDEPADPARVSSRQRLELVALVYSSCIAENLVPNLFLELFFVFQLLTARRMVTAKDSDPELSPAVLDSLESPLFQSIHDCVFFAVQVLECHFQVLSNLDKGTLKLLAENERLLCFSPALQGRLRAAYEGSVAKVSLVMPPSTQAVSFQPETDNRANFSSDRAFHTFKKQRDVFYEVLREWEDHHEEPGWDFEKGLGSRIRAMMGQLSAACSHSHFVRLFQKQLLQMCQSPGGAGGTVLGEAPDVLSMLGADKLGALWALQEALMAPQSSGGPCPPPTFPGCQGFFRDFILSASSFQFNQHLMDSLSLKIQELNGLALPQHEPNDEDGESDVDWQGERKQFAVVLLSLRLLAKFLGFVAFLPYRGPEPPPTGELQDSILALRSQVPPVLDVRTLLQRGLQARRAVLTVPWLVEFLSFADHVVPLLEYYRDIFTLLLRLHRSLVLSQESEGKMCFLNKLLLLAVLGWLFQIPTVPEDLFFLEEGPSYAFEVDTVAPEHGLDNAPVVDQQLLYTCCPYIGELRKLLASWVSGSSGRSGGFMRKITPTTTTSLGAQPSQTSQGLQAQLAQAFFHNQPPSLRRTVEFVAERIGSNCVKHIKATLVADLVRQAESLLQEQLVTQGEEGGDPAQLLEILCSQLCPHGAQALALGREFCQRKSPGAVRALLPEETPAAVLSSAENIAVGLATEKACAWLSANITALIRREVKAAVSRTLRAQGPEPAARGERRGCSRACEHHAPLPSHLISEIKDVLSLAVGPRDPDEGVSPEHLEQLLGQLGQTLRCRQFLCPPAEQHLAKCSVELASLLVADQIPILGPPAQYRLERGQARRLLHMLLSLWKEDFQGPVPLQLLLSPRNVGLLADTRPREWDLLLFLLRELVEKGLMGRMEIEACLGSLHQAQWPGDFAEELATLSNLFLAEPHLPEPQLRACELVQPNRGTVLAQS

- binding [1]: binds
- binding [2]: binds
B1: FLAG-tagged CDIN1 (F-CDIN1) (natural protein, UniProt Q9Y2V0 1-281, looked up)
chain: MILTKAQYDEIAQCLVSVPPTRQSLRKLKQRFPSQSQATLLSIFSQEYQKHIKRTHAKHHTSEAIESYYQRYLNGVVKNGAAPVLLDLANEVDYAPSLMARLILERFLQEHEETPPSKSIINSMLRDPSQIPDGVLANQVYQCIVNDCCYGPLVDCIKHAIGHEHEVLLRDLLLEKNLSFLDEDQLRAKGYDKTPDFILQVPVAVEGHIIHWIESKASFGDECSHHAYLHDQFWSYWNRFGPGLVIYWYGFIQELDCNRERGILLKACFPTNIVTLCHSIA
notes: C15orf41); cDNA synthesized by IDT; source: Expi293, transiently transfected, in lysate and purified in complexes (anti-FLAG, Strep-Tactin); not shown: 3xFLAG, N-terminal, kept
